In the supplement of paper PMC11417369:
± gives the standard deviation of the averaged measurements. The list shows a part of the results.

Test system: PfAP2-I AP2 domain 3 (GST-tagged)
Experiment: gcPBM binding intensity (ln(normalized median fluorescence intensity)); higher = stronger DNA binding
Summary of the method: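 For binding intensity, the highest Masliner-normalised natural-log median intensity across replicate spots of either probe orientation was taken. Protein bound to the array was stained with Alexa488 anti-GST antibody and scanned at 488 nm. The protein, GST-tagged P. falciparum DNA-binding domains from E. coli at about 25 μg on average, had been applied for 1 h to an Agilent 4 × 180k array of primer-extended double-stranded 36-bp intergenic genomic probes and negative controls.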

Sequence	gcPBM binding intensity (ln)
AACATAGAAACGTTATGTACATATTGAAGGATATTA [XGTACX_site6015]	7.82 ± 0.52
AAATATTTATACTATACACACCCAATTTAAAAAAAA [CACACA_site6669]	7.95 ± 0.47
ATTTCTAGTTTAAGATGTACTTTAATAAAAATTATT [XGTACX_site4820]	7.66 ± 0.46
ATCTTTGGAAATTTATGTACTTATATTTATATTGTA [XGTACX_site6606]	7.71 ± 0.57
AAATATCAACAAAAATGTACAAATGTAAAAGAATAT [XGTACX_site4676]	8.02 ± 0.69
ACTATACAGTTATACACACACATATATATATAATAT [CACACA_site310]	8.25 ± 0.49
TTTTTTTTTTAATAAAGTACATATAAATTACCTAAT [XGTACX_site4434]	7.71 ± 0.54
AGGTTAAAAATAAATACACACATTTTATGTCTGTAT [CACACA_site996]	7.51 ± 0.61
AAATGAGTATTCATATGTACACAAATAAAAAATTAA [XGTACX_site2968]	7.77 ± 0.48
ATGGAAGGAAACAATAAAAAAAAAAAAAAATATATA [XGTACX_negctrl_site594]	7.5 ± 0.28
CATTTAAAGGACAAGCTGCACTTACAAAATAAAAAA	8.68 ± 0.21
AATGACAACCTTGTCACACATATATATATATATATA [CACACA_site5977]	9.31 ± 0.45
TTTTTTATTTGACAAGCACACACTTAAATATATATA [CACACA_site3358]	8.07 ± 0.52
ATTTTTATATAATGAACACACATATTATATCATTTA [CACACA_site1572]	7.67 ± 0.69
AAAAGAAAATAAGAAACACACAAAAATATGTAAAAA [CACACA_site7694]	7.45 ± 0.88
TTAGTCATATATATATGTACACACATATATATATTT [XGTACX_site2948]	7.62 ± 0.43
AAAATCCACATTTTAGTACACACTTAAAAAATTATT [CACACA_site2955]	8.05 ± 0.38
GAACATACTCAAATAGCACACACATAAATAAAAATG [CACACA_site9283]	8.29 ± 0.38
TATATATATATAATATGTACATATAATCAACATTTT [XGTACX_site3915]	8.93 ± 0.15

Sequence	gcPBM binding intensity (ln)
TTATATATATATATATGTACGAAAAAGAAAAAAAAG [XGTACX_site6761]	8.01 ± 0.44
AAAAAAAAATACATATGTACATATACATATATATAT [XGTACX_site2975]	8.9 ± 0.27
ATATTATATAAATATACACACATTGTTTTATAGCAT [CACACA_site2386]	7.78 ± 0.59
ATATATTTAATTTATGGTACACATAATTTTTTTAGA [XGTACX_site848]	7.83 ± 0.4
TATATATATATATATACACACATATATATAAATATA [CACACA_site2035]	9.15 ± 0.4
TTAAAAAAAAGACACACACACATACACATATTTATA [CACACA_site7535]	7.84 ± 0.33
CACAAAAGTAAGCACGCACACACAACCTGAAATAAA [CACACA_site166]	8.21 ± 0.38
TAGTAATATATATTTTGTACATAAAATAATATATAA [XGTACX_site7971]	7.76 ± 0.52
CGTTATTATCCACATACACACAGGAATAAAAAATTA [CACACA_site2883]	8.05 ± 0.23
ATTTGAAATGCATGAACACACACAGCTATAAATGCA [CACACA_site8229]	7.88 ± 0.66
TATATATGTTAAAACGTGCACATATATATATATATA [GTGCAC_site9589]	10.1 ± 0.19
ATAAAATATAAAAAAAGTACAAAAAAAAAAAAAAAA [XGTACX_site6657]	8.22 ± 0.22
ATATATGCATATTATACACACATATGTATATACATT [CACACA_site965]	8.12 ± 0.56
ACCCATGATTGTTACAGTACTCTACTTTCTAATATA [XGTACX_site98]	8.24 ± 0.69
AAACTGTCGCTCATAAAGAAGAATGAAATACATTAA [TGCATGCA_negctrl_site60]	7.47 ± 0.58
TGGAGGTCAGTTCACAGTACCCAGGAAATCTACGGA [XGTACX_site1995]	7.45 ± 0.67
TTTTCTGTATATTGTGTGCACACAATTAACAAAAAA [GTGCAC_site9817]	10 ± 0.2
AAAAAAAAAAAAAATGCACACAATGGCTAGCTGTAC [CACACA_site2273]	9.15 ± 0.071
ATATTGACAAATATTACACACATATATAAATATGTA [CACACA_site7835]	7.7 ± 0.5

Sequence	gcPBM binding intensity (ln)
CCATAGATATTTTATACACACATATAACATATTAAT [CACACA_site6312]	7.74 ± 0.45
ATATAATATTACACAAGTACAAAAATTAATACTAAA [XGTACX_site482]	7.69 ± 0.38
ATTTATTTTAATATATGTACATATATTTTTTTATTA [XGTACX_site3389]	7.79 ± 0.41
TATAACTTTTATAGGTGTACCCAATATTATATATAG [XGTACX_site7673]	7.92 ± 0.028
TATATATAATAAGAAGGTACACGTAAGTAATAATTT [XGTACX_site934]	8.33 ± 0.58
TTTATATGTTTTGTATTTTTAATAAATATTTTATTA [TGCATGCA_negctrl_site20]	7.78 ± 0.55
CCATCTTTTTTACGATGTACAAGTATAAGGTATACG [XGTACX_site2697]	7.76 ± 0.46
ATATATATATATGTATGTACACATATTTTTTAACTT [XGTACX_site431]	9.205 ± 0.078
AAATAAATAAATTAACGTACATAATAACATTAATAT [XGTACX_site8567]	7.68 ± 0.23
TTATATTATAGACACACACACAAAAAAAAAAAAAAA [CACACA_site3816]	8.11 ± 0.48
TGTAAAACCTCCTACACACACCAATTAACTATTCTA [CACACA_site7074]	7.7 ± 0.53
TATATATATATTATTAGTACTTATTTTTTTTCATAT [XGTACX_site1279]	8.9 ± 0.13
AATATAATTATATGTGGTACAGAAATAATATAAAAT [XGTACX_site2366]	8.22 ± 0.52
TTCTTTTTTTTTCTGGGTACATATATTCCAATCACT [XGTACX_site4770]	8.34 ± 0.33
TTATAAAAGACAAAAGTGCATATATACATATGTATA	9.49 ± 0.21
AATATATCTTTTTACGGCAACCATATTTTTCCCATT [CACACA_negctrl_site963]	8.15 ± 0.84
TTTTTTTTTTTTTGATGTACATAAATTAAGAATTAT [XGTACX_site7789]	8.06 ± 0.67
TATTATGTTATATATTGTACATGTTTATTGAAACAA [XGTACX_site5605]	7.84 ± 0.5
TTTATATGTGAAAAAAGTACAAGGAAAAAATTAAAC [XGTACX_site7269]	8.34 ± 0.61
